The full ranking holds about 110,000 compounds; the median of “z-score” is about -0.1, and the highest 2% start at about 2. The list shows a part of the results. Activity calls are given as the source filed them.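 The calls were made as follows: active = z-score in the third read window above 3 or below -3; inactive = the rest.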
The compounds below were run against Metabotropic glutamate receptor 8 (Rattus norvegicus) (UniProt P70579) (assay: mGluR8 Gi/Go-coupled signaling modulation – cell-based, rat, thallium flux, HTS, primary screen (AID 488969)). Settings: HEK293 rat mGluR8, GIRK (G protein-gated inwardly rectifying potassium channel) thallium flux, FluoZin2; at 10 µM; stronger effect = higher value; submaximal glutamate (EC20) added with thallium.
Chain of UniProt P70579 (P70579 whole entry, looked up): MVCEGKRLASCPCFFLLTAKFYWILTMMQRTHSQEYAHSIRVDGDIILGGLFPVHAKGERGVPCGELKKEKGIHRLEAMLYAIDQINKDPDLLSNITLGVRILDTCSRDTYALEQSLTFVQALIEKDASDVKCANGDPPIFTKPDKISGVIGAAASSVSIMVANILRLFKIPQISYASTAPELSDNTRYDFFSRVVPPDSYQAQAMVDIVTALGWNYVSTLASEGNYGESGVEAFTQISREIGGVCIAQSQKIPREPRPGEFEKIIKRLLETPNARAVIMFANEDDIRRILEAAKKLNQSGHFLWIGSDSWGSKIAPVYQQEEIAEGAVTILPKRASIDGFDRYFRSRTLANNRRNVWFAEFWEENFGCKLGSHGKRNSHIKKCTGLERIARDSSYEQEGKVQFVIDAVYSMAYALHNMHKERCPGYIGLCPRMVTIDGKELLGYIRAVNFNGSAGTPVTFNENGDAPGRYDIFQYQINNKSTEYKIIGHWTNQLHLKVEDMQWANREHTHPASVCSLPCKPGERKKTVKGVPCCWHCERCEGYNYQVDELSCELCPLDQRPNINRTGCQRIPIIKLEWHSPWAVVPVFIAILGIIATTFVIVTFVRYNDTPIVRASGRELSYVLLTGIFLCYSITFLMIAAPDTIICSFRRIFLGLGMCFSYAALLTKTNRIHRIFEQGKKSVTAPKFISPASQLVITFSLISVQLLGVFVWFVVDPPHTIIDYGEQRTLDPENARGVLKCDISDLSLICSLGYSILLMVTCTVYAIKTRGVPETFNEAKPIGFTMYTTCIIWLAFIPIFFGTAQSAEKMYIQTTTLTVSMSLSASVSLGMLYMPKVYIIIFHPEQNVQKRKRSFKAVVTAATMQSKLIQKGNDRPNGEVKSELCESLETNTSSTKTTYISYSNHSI

Row | Compound | z-score
1 | Cc1ccc(S(=O)(=O)N(C)c2ccc(C(=O)NCC3CCCO3)cc2)cc1 (stereo unspecified) | 0.0311
2 | CC#CC[N+](C)(C)CCCCCCCCCCCC | -0.51
3 | Cc1ccccc1NS(=O)(=O)c1ccc(NC(=O)c2nc3ncccn3n2)cc1 | 0.0108
4 | CNc1oc(-c2ccco2)nc1C#N | 0.498
5 | CC1(C)CN=C(N2CCN(c3ncnc4sc5c(c34)CCCC5)CC2)S1 | active: 5.02
6 | CCN(CC)S(=O)(=O)c1ccc(N2CCOCC2)c(NC(=O)c2cc(C)cc(C)c2)c1 | -0.334
7 | Cc1cccc(OCC(=O)NNC(=O)c2cc3ccccc3oc2=O)c1 | 0.755
8 | Cc1ccc2c(c1)nnn2C1CCN(CC(=O)Nc2ccc3c(c2)OCCO3)CC1 | -0.198
9 | CC(C)C1Cc2c(C#N)c(N)sc(=S)c2CO1 (stereo unspecified) | 0.698
10 | O=C(NCc1ccccc1)Nc1cccn(Cc2ccccc2)c1=O | -0.14
11 | O=C1OC(c2cccs2)=N/C1=C\c1ccc(-c2ccccc2Cl)o1 | 0.0833
12 | COc1ccc(N(C(=O)c2ccco2)C(C(=O)NC2CCCC2)c2ccc(N(C)C)cc2)cc1OC (stereo unspecified) | -0.1
13 | CCN(C(=O)COC(=O)/C=C/c1ccc(O)c(OC)c1)C1CCS(=O)(=O)C1 (stereo unspecified) | -0.127
14 | N#C/C(=C(/O)COC(=O)c1ccc(C#N)cc1)c1nc2ccccc2s1 | -0.337
15 | O=C(Cc1sc(-c2ccccc2Cl)nc1-c1ccccc1)Nc1ccccc1 | -0.145
16 | Fc1ccc(/C=N/NC2=Nc3cccc4cccc2c34)cc1 | -0.367
17 | Cc1nc(SCC(=O)Nc2ccnc3ccccc23)n[nH]1 | -0.57
18 | O=C(Nc1ccc(Cl)cc1C(=O)NCc1cccnc1)c1ccc(Cl)cc1Cl | -0.533
19 | COc1ccc(-c2nnc(SCCC(=O)O)n2-c2ccccc2)cc1OC | -0.345
20 | CCOc1ccc(OCC)c(S(=O)(=O)NCCCN2CCOCC2)c1 | 0.889
21 | COC(=O)C1=NN(c2ccccc2)C2(S1)SC(C(C)=O)=C(C)N2c1ccccc1 (stereo unspecified) | -0.198
22 | O=C(CSC1=NCCN1)NC1CCCCCC1 | -0.616
23 | CN1CCN(NC(=O)c2cccc(F)c2)CC1 | -0.141
24 | CCCCn1nc2cc(C(=O)NCCc3ccc(C)cc3)ccc2c1OCC | -0.356

Row | Compound | z-score
25 | O=C(Nc1ccc2c(c1)OCO2)C1(S(=O)(=O)c2ccc(Cl)cc2)CC1 | -1.49
26 | O=C(COc1ccc(S(=O)(=O)NC2CCCCC2)cc1Cl)NCc1cccnc1 | -0.567
27 | CC(C)COc1ccc(C(=O)NCc2ccco2)cc1 | -0.0157
28 | N=c1c2c3c(sc2ncn1Cc1ccco1)CCCCC3 | 1.18
29 | COc1ccc(NC(=O)C2CC2)cc1NS(=O)(=O)c1ccc(F)cc1 | 0.144
30 | COc1ccc(CCNC(=O)c2c(O)c3c([nH]c2=O)CCCC3)cc1OC | -0.216
31 | CC(NC(=O)/C(=C/c1ccc(OC(F)F)cc1)c1ccccc1)c1ccccc1 (stereo unspecified) | -0.337
32 | COc1ccc2[nH]c(=O)c(CN(Cc3nnnn3Cc3ccco3)C3CCCCC3)cc2c1 | -1.4
33 | COc1ccc(-c2csc(NC(=O)c3cc(C)on3)c2C#N)cc1OC | -0.214
34 | Cc1ccc2nc(SCC(=O)c3ccc(Cl)s3)[nH]c2c1 | 0.092
35 | Cc1cc(C(=O)CSc2n[nH]c(-c3ccccc3F)n2)c(C)n1Cc1cccs1 | -0.265
36 | c1ccc2c(NC3=NCCCCS3)cccc2c1 | 0.0574
37 | CC(C)(C)NS(=O)(=O)c1ccc(N2C(=O)c3ccccc3C2=O)cc1 | -0.177
38 | COc1ccc(C(=O)/C=C2/c3ccccc3CC(C)(C)N2C)cc1 | -0.448
39 | COC(=O)CSc1nnc(C2COc3ccccc3O2)n1-c1ccccc1 (stereo unspecified) | -0.294
40 | O=C(O)CC(C(=O)OCCOc1ccccc1)N1CCOCC1 (stereo unspecified) | -0.546
41 | COc1ccccc1/C=C(/C(=O)OCC(=O)Nc1ccccc1C)c1ccccc1 | -0.0551
42 | COC(=O)c1c(NC(=O)Nc2ccc(Cl)cc2)sc(C)c1C | -0.185
43 | CCCN(CCC)C(=O)c1c(C)[nH]c(C(=O)OCC)c1C | -0.223
44 | Cc1ccc(-c2cc(N)n[nH]2)cc1 | -0.105
45 | Cc1ccc(C2C(C#N)=C(N)SC(N)=C2C#N)cc1 | -0.773
46 | Cc1ccc(C)c(NC(=O)CN(C)C(=O)CCN2C(=O)c3ccccc3C2=O)c1 | -0.0115
47 | O=C(CN1CC(c2ccccc2)CC1=O)OCc1cccc(Br)c1 (stereo unspecified) | -0.12
48 | CCCOc1ccc(N2C(=O)CC(N(O)c3ccccc3)C2=O)cc1 (stereo unspecified) | -0.235

Row | Compound | z-score
49 | CCCOc1ccc(-c2nc(=S)[nH][nH]2)cc1 | 0.12
50 | NC(=O)c1cccn1Cc1cccc(Cl)c1 | 0.00567
51 | CCOc1cc(N2CCOCC2)c(OCC)cc1NC(=O)c1ccc(OCc2c(C)noc2C)c(OC)c1 | -0.712
52 | COc1cc(CC(=O)NCc2cccs2)cc(OC)c1OC | -0.175
53 | Cc1cc(C)c2[nH]c(=O)c(CN(CC3CCCO3)C(=S)NCc3ccco3)cc2c1 (stereo unspecified) | 0.209
54 | CCOC(=O)c1c(NC(=O)c2cccs2)sc(C)c1CC | -0.104
55 | COc1ccc2c(c1)c1nc3ccccc3nc1n2CC(=O)OC(C)C | 0.485
56 | Cc1cc2oc(C(=O)Nc3c(C)n(C)n(-c4ccccc4)c3=O)c(C)c2cc1C | -0.974
57 | O=C(C1=NN[C@@H]2C(=O)N(c3cccc(C(F)(F)F)c3)C(=O)[C@H]12)C(c1ccccc1)c1ccccc1 | -0.164
58 | O=C(COC(=O)C1CC(=O)N(Cc2ccco2)C1)c1ccc(OC(=O)c2ccco2)cc1 (stereo unspecified) | 0.0771
59 | Cc1ccccc1N=C1NN=C(c2ccccc2F)CS1 | 1.19
60 | COc1ccccc1NC(=O)NC(N)=O | 0.482
61 | CCCS(=O)(=O)c1c(S(=O)(=O)CCC)c2c3ccccc3ccn2c1C(=O)OC | -0.21
62 | COc1cc(-c2nnc(SCC3(c4ccc(Br)cc4)OCCO3)o2)cc(OC)c1OC | -0.385
63 | CCOc1cccc(OCCCOc2ccccc2)c1 | -0.0974
64 | Cc1ccc(OCCNS(=O)(=O)c2cccs2)cc1 | 0.0923
65 | CCN(CC)C(=O)CSc1ncnc2c1nnn2-c1ccc(F)cc1 | -0.376
66 | Cc1ccc(OCC(=O)N2N=C(c3cccnc3)CC2(O)C(F)(F)F)cc1C (stereo unspecified) | -0.105
67 | Cc1nonc1OCC(C)(COc1nonc1C)NC(=O)c1ccc(Cl)cc1 | -0.0555
68 | CCC(CC)C(=O)c1c[nH]c(C(=O)NCCc2ccccn2)c1 | 0.0635
69 | Cc1ccccc1CNC(=O)c1ccccc1 | -0.329
70 | Cc1ccc(-n2nc(C)c3c2OC(N)=C(C#N)C3c2ccncc2)cc1 (stereo unspecified) | -0.498
71 | O=C(c1cc(NC(=O)C23CC4CC(CC(C4)C2)C3)cc(NC(=O)C23CC4CC(CC(C4)C2)C3)c1)N1CCCCC1 | -1.34

Source: PubChem BioAssay AID488969 (Vanderbilt High Throughput Screening Facility, 2010)
